# From PubChem BioAssay AID504648 (National Center for Advancing Translational Sciences (NCATS), 2011)
# Hit rate of the full screen: of about 390,000 compounds, about 610 (0.16%) were called active. Inconclusive results (about 4%) are left out. Calls follow the shape of the dose curve; as a rule, active = well fitted inhibition curve with a large enough effect; inconclusive = small, poorly fitted or top-dose-only effect, or effect the other way, or another doubt; inactive = no such curve, though single readings can be large or run the other way. This is a selection; strong and weak results do not stand in their true shares.
# Assay: Nrf2 qHTS screen for inhibitors: counterscreen for cytotoxicity
# Conditions: A549 ARE-Fluc cells, CellTiter-Fluor viability, 18-24 h; series mostly up to 46 µM; activity change, negative = cytotoxicity: at the top concentration
# Outline: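 A549 ARE-Fluc cells in 5% FBS OPTI-MEM, 5000 cells/well, rested 2 h then exposed to compounds in concentration-response for 18-24 h at 37 °C. Viability by CellTiter-Fluor fluorescence (Ex 405/Em 525) after 30 min; luciferase luminescence (BugLite, 15 min, RT) read afterwards.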
# % is scaled to controls: 0 for no effect and ±100 for the full control effect; potency is read from the fitted curve at half-maximal effect.
SMILES,"activity change, negative = cytotoxicity",Potency
COc1ccc(CNC(=O)c2nc(S(=O)(=O)Cc3ccccc3)ncc2Cl)cc1,inactive: -19.4%,–
Cc1cccc(NS(=O)(=O)c2ccc3nc(-c4ccccc4)[nH]c3c2)c1C,inactive: 2.58%,–
CCCCCn1c(=N)n(CC(O)COc2ccccc2OC)c2ccccc21 (stereo unspecified),inactive: -21.3%,–
CCOC(=O)c1cc2c(=O)n3ccccc3nc2n(Cc2ccco2)c1=NC(=O)c1ccccc1OC,inactive: -13.4%,–
O=[N+]([O-])c1ccc(O)c2ncccc12,–,active: 13 µM
CC(C)(C)c1ccc(-c2noc(CCC(=O)NCc3ccco3)n2)cc1,–,active: 11.6 µM
C=CC[C@@H](CC(=O)N[C@H](CO)Cc1ccccc1)C(=O)N[C@@H](COC(=O)[C@@H](CC=C)Cc1ccc(F)cc1)Cc1c[nH]c2ccccc12,inactive: -6.51%,–
C=CCC[C@@H](Cc1ccc(F)cc1)C(=O)OC[C@@H](NC(=O)[C@@H](CC=C)CC(=O)N[C@H](CO)Cc1ccccc1)C(C)(C)C,inactive: -27.1%,–
CC1CCN(S(=O)(=O)c2ccc3c(c2)C(=NO)c2cc(S(=O)(=O)N4CCC(C)CC4)ccc2-3)CC1,–,active: 5.17 µM
COc1ccccc1C(=O)Nc1cc(-c2ccc(C)cc2)no1,inactive: 17.5%,–
O=C(CN1CCN(Cc2ccc(F)cc2Cl)C1=O)NCCc1ccc(Cl)cc1,inactive: -2.61%,–
COc1cc2c(=O)n(CCC(=O)NCC3CCCO3)c(=O)n(CC(=O)Nc3ccc(F)cc3)c2cc1OC (stereo unspecified),inactive: -19.2%,–
C=CCC[C@@H](Cc1ccc(F)cc1)C(=O)OC[C@H](Cc1c[nH]c2ccccc12)NC(=O)[C@@H](CC=C)CC(=O)N[C@@H](CO)Cc1ccccc1,inactive: -10%,–
C=CC[C@H](CC(=O)N[C@H](CO)Cc1ccccc1)C(=O)N[C@@H](COC(=O)[C@@H](CC=C)Cc1ccc(F)cc1)Cc1c[nH]c2ccccc12,inactive: 0.926%,–
C[C@]12CCC(=O)C[C@@H]1CC[C@@H]1[C@@H]2CC[C@]2(C)[C@@H](C(=O)COC(=O)CCC(=O)O)CC[C@@H]12,inactive: 0.606%,–
CCOC(=O)/C(=C/C=C1\Sc2cc(OCC)c(OCC)cc2N1CC)C(C)=O,inactive: -29.1%,–
C=CC[C@@H](CC(=O)N[C@@H](CO)Cc1ccccc1)C(=O)N[C@H](COC(=O)[C@@H](CC=C)Cc1ccc(F)cc1)Cc1c[nH]c2ccccc12,inactive: -4.88%,–
CCc1nn2c(N)c(/C=C3\C=Nc4ccccc43)c(=O)nc2s1,inactive: -13.4%,–
CCOc1ccccc1CNC(=O)CCn1ccc2cc(S(=O)(=O)N3CCCCC3)ccc21,inactive: 0.52%,–
CCOCCCn1c(=NC(=O)c2cccnc2)c(C(=O)OCC)cc2c(=O)n3ccccc3nc21,inactive: -16.6%,–
C=CC[C@@H](CC(=O)N[C@@H](CO)Cc1ccccc1)C(=O)N[C@H](C)COC(=O)[C@@H](CC=C)Cc1ccc(F)cc1,inactive: -7%,–

SMILES,"activity change, negative = cytotoxicity",Potency
N=C(N)SCc1nc2ccccc2c(=O)n1-c1ccccc1,inactive: -3.5%,–
CS(=O)(=O)N1CCN(c2ccc(NC(=O)c3ccc([N+](=O)[O-])o3)cc2)CC1,–,active: 13 µM
CC(C)(C)OC(=O)C[C@H]1C/C=C\C[C@@H](CC(=O)N(CCO)Cc2ccccc2)C(=O)NC[C@H](c2ccccc2)OC1=O,inactive: -3.59%,–
Cc1cccc(CS(=O)(=O)Cc2ccc(C(=O)NC(C)c3ccccc3)o2)c1 (stereo unspecified),inactive: 11.2%,–
COc1cc(C(CC(=O)N2CCCC2)c2c(OC)cc(OC)c3ccc(=O)oc23)cc(OC)c1OC (stereo unspecified),inactive: -14.6%,–
CC(=NNc1nc2ccccc2o1)c1cc2ccccc2cn1,–,active: 10.3 µM
CCN(C(=O)C(C)N1C(=O)/C(=C/c2ccco2)SC1=S)C1CCS(=O)(=O)C1 (stereo unspecified),–,active: 14.6 µM
Cc1ccccc1-c1cc(C(=O)Nc2sc(C(=O)OC(C)C)c(C)c2C#N)c2ccccc2n1,–,active: 7.31 µM
COc1ccc(C2CC(=O)Oc3c(C(CCN4CCCCC4)c4ccc(N(C)C)cc4)c(OC)cc(OC)c32)cc1 (stereo unspecified),inactive: -25.5%,–
C=CC[C@@H](CC(=O)N[C@@H](CO)Cc1ccccc1)C(=O)N[C@@H](COC(=O)[C@@H](CC=C)Cc1ccc(F)cc1)Cc1c[nH]c2ccccc12,inactive: -18.2%,–
CC1=Nc2cc(C(=O)N3CCCCC3)ccc2Sc2ccc(C)cc21,inactive: 0.663%,–
CC(=C\c1ccccc1)/C=C1/SC(=S)N(C(C(=O)O)C(C)C)C1=O (stereo unspecified),inactive: -14.9%,–
O=C1C=C(NCCc2cc(Br)c(O)c(Br)c2)C(=O)c2ncccc21,–,active: 23.1 µM
CCCCc1ccc(-c2csc(/C(C#N)=C\c3ccco3)n2)cc1,inactive: -11.3%,–
CC1=NN(c2ccccc2)C(=O)C1/C=C1\NC(=S)NC1=O (stereo unspecified),inactive: -12.2%,–
Cc1cc(Br)ccc1SCC(=O)OCC(O)=C(C#N)c1nc2ccccc2[nH]1,inactive: 0.396%,–
CC(C)(C)OC(=O)C[C@H]1C/C=C\C[C@H](CC(=O)N(CCO)Cc2ccccc2)C(=O)NC[C@H](c2ccccc2)OC1=O,inactive: -4.98%,–
CN1CCN(c2ccc(Nc3ccnc4cc(Cl)ccc34)cc2)CC1,–,active: 6.51 µM
O=C(Nc1cccc(S(=O)(=O)Nc2ccc(Cl)cc2)c1)c1ccc2c(c1)OCCO2,–,active: 16.4 µM
CN(C)c1ccc(C=c2c3ccccc3n3c2c2c([n+]3C)CCCC2)cc1,–,active: 20.6 µM
CC(C)NCC(O)COc1ccc(CC(N)=O)cc1 (stereo unspecified),inactive: -5.39%,–

SMILES,"activity change, negative = cytotoxicity",Potency
Cc1nc([N+](=O)[O-])c(Br)n1CC(=O)c1ccc(Br)cc1,–,active: 16.4 µM
Cc1cc(F)ccc1S(=O)(=O)Nc1ccccc1C(=O)Nc1ccccc1-c1nc2ccccc2[nH]1,–,active: 23.1 µM
COc1cc(/C=N/NC(=O)c2ccncc2)ccc1O,inactive: -2.68%,–
O=C1N[C@@H](Cc2ccccc2)C(=O)N2[C@H]1C[C@]1(Br)c3ccccc3N(S(=O)(=O)c3ccc(F)cc3)[C@H]21,inactive: -2.9%,–
COc1cccc2c1C(=O)c1c(O)c3c(c(O)c1C2=O)C[C@@](O)(C(=O)CO)C[C@@H]3OC1CC(N)C(O)C(C)O1 (stereo partly specified),–,active: 8.2 µM
CCOc1ccccc1-n1c(C)nc2cc(C(=O)O)ccc21,inactive: -0.804%,–
COc1cc2nc(Nc3ccc(C)c(C)c3)nc(N)c2cc1OC,inactive: 0.586%,–
Cc1ccc(-c2c(C(=O)N(C)Cc3ccccc3)oc(=O)c3ccccc23)cc1,inactive: 1.43%,–
COc1ccc([C@H]2/C=C\CN(C(=O)c3ccc(C)cc3)[C@@H](C)C(=O)N2Cc2ccc(F)cc2)cc1,inactive: -12.6%,–
CCCCN(CCCC)CCNC(=O)c1cn(CC)c2ccc(S(=O)(=O)N(C)C3CCCCC3)cc2c1=O,inactive: -1.63%,–
CCC(=O)NC(c1ccco1)c1cc(Cl)c2cccnc2c1O (stereo unspecified),inactive: -12.8%,–
C#Cc1ccc([C@@H]2C=C(C(=O)NCc3nc4ccccc4[nH]3)O[C@H](OCC)[C@H]2CCCO)cc1,inactive: 0.505%,–
N[C@@H](Cc1cc(I)c(Oc2ccc(O)c(I)c2)c(I)c1)C(=O)O,inactive: -13.5%,–
CCN1/C(=C\c2ccc3ccccc3[n+]2CC)Sc2cc(C)ccc21,–,active: 23.1 µM
CCC1CN(C(=O)NCc2ccc(C)cc2)c2cc(C)ccc2O1 (stereo unspecified),inactive: 2.18%,–
C=CC[C@@H](CC(=O)N[C@H](CO)Cc1ccccc1)C(=O)N[C@H](C)COC(=O)[C@@H](CC=C)Cc1ccc(F)cc1,inactive: -4.8%,–
COCCOC(=O)c1c(C)oc2ccc(O)c(CN3CCC(C)CC3)c12 (tested in a mixture with another compound),inactive: -13.2%,–
CC(C)C[C@H](NC(=O)c1[nH]cnc1C(=O)N[C@H](C)c1ccccc1)C(=O)OCc1ccccc1,inactive: -7.25%,–
COc1ccc(-n2nc3c(N4CCC(C(=O)NCc5ccccc5C)CC4)nnc(C)c3c2C)cc1,inactive: -0.0672%,–
O=C(C[C@H]1C/C=C\CC[C@@H](Cc2ccc(F)cc2)C(=O)O[C@@H](c2ccccc2)CNC1=O)N[C@H](CO)Cc1ccccc1,inactive: -4.69%,–
COc1ccc(OC)c2nc3c(C(=O)NCCN(C)C)cccc3nc12,–,active: 16.4 µM

SMILES,"activity change, negative = cytotoxicity",Potency
Cc1oc2c(c1C(=O)N1CCOCC1)C(=O)c1ccccc1C2=O,–,active: 16.4 µM
N=c1c2c(ncn1-c1ccccc1)Oc1ccc3ccccc3c1C2c1ccc2c(c1)OCO2 (stereo unspecified),–,active: 14.6 µM
CN1CCN(CCC=C2c3ccccc3Sc3ccc(S(=O)(=O)N(C)C)cc32)CC1,inactive: -14.6%,–
O=C(C1=C[C@@H](c2ccc(C(F)(F)F)cc2)C[C@@H](OCc2ccc(CO)cc2)O1)N1CCN(Cc2ccc3c(c2)OCO3)CC1,inactive: -21.6%,–
CC1CCN(CC(=O)N2CCCc3c2c(=O)oc2ccc(OCc4ccccc4)cc32)CC1,inactive: -10.4%,–
Cc1ccc(CN2C(=O)c3ccccc3Sc3ccc(C(=O)NCCCN4CCOCC4)cc32)cc1,inactive: -1.28%,–
CCCCCCN1C=C/C(=C\C=C(C#N)C#N)c2ccccc21,–,active: 6.51 µM
Cc1ccc(SC[C@H](CC(C)C)N2CCN(CCc3ccccc3)CCC2=O)cc1,inactive: -16.9%,–
C=CC[C@@H](CC(=O)N[C@H](CO)Cc1ccccc1)C(=O)N[C@@H](COC(=O)[C@@H](CC=C)CC(=O)OC(C)(C)C)Cc1c[nH]c2ccccc12,inactive: -18.9%,–
N#C/C(=C\c1ccc(-c2ccccc2C(=O)O)o1)c1nc2ccccc2[nH]1,inactive: -27%,–
Cc1c(NC(=O)/C(C#N)=C/c2ccc(-c3ccc(Cl)cc3)o2)c(=O)n(-c2ccccc2)n1C,–,active: 23.1 µM
COc1cccc2c1cc1c(=O)n(CC(=O)NCCCN3CCN(C)CC3)nc(C)n12,inactive: 7.97%,–
CC(=O)c1ccc(N2CCN(S(=O)(=O)c3ccc(-c4cnc(C5CC5)o4)cc3)CC2)cc1,inactive: -19.8%,–
C#Cc1ccc([C@H]2C=C(C(=O)N3CCN(Cc4ccc5c(c4)OCO5)CC3)O[C@@H](OCC)[C@@H]2CCCO)cc1,inactive: -1.78%,–
COc1cc(C2C3=C(COC3=O)Oc3cc4c(cc32)OCO4)cc(OC)c1OC (stereo unspecified),inactive: -4.3%,–
O=C1Nc2ccc(Br)cc2/C1=N\N=C\C1=C(N2CCOCC2)C(=C/c2ccccc2)/CC1,inactive: -13.5%,–
O=C1NC[C@@H](c2ccccc2)OC(=O)[C@@H](Cc2ccc(F)cc2)C/C=C\C[C@@H]1CC(=O)N(CCO)Cc1ccccc1,inactive: -29.4%,–
C=CCC[C@H](Cc1ccc(F)cc1)C(=O)OC[C@@H](C)NC(=O)[C@H](CC=C)CC(=O)N(CCO)Cc1ccccc1,inactive: -2.86%,–
